# Experimental data taken from the BET-seq Pho4 binding data (Le et al. 2018).
# The list shows a part of the results. The energies were worked out here from pooled read counts, against the library average; single values are noisy.
# Biological target: T1, Pho4 (S. cerevisiae) (UniProt P07270)
# T1 sequence: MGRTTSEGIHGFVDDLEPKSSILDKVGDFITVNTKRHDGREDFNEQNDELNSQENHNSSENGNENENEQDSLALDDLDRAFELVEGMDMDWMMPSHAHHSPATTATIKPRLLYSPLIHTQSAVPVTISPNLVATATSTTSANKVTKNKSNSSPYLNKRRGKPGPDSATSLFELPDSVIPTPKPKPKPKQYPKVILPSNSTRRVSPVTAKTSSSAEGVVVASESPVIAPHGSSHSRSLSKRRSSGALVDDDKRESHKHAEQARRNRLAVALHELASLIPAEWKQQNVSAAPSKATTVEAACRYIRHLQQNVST
# Assay: relative binding free energy (BET-seq); higher = weaker binding
# Conditions: reference: library average
row,Sequence,relative binding free energy
1,GGGACCACGTGTGGGT,-0.01 kcal/mol
2,CTTTTCACGTGAGAAT,0.42 kcal/mol
3,GGGAACACGTGGGTCT,-0.08 kcal/mol
4,AGAGACACGTGAGGTT,0.29 kcal/mol
5,CGGTACACGTGTGTGA,0.13 kcal/mol
6,GGCTGCACGTGGGGCA,-0.08 kcal/mol
7,GAGTCCACGTGTTAGT,0.32 kcal/mol
8,TATCGCACGTGTTTGT,-0.02 kcal/mol
9,GTTGGCACGTGGAAGC,0.02 kcal/mol
10,TGTTTCACGTGCGGTG,0.32 kcal/mol
11,GATAGCACGTGTGGCT,0.14 kcal/mol
12,GTTTACACGTGATTTA,0.36 kcal/mol
13,AGGTGCACGTGCGTAG,-0.11 kcal/mol
14,TTTTGCACGTGGAGTA,-0.03 kcal/mol
15,AGGTCCACGTGGTTTA,-0.06 kcal/mol
16,GAGGACACGTGTTGTT,0.16 kcal/mol
17,ATTCGCACGTGGGAGG,-0.22 kcal/mol
18,ATTCGCACGTGTGGGC,-0.1 kcal/mol
19,TGTTTCACGTGTCGAT,0.32 kcal/mol
20,GTGGTCACGTGGTTGG,0.22 kcal/mol
21,GTTTGCACGTGTGGCT,0.06 kcal/mol
22,GCATGCACGTGTCGGG,-0.03 kcal/mol
23,CTTTTCACGTGAGTTG,0.27 kcal/mol

row,Sequence,relative binding free energy
1,GGTACCACGTGGTAGG,-0.13 kcal/mol
2,TGTGGCACGTGCAGGG,-0.03 kcal/mol
3,AGGTTCACGTGTACGT,0.33 kcal/mol
4,GGATACACGTGTAGGT,0.17 kcal/mol
5,TGATGCACGTGGGGAC,-0.23 kcal/mol
6,GGGTGCACGTGGTGTA,-0.08 kcal/mol
7,GTCTGCACGTGTAGGG,0.06 kcal/mol
8,TATGCCACGTGGTGCA,-0.11 kcal/mol
9,GAGTGCACGTGTGTTG,0.16 kcal/mol
10,TGTTTCACGTGCTTAT,0.31 kcal/mol
11,TCCTGCACGTGGTGGA,-0.06 kcal/mol
12,TACGTCACGTGTTGTG,0.14 kcal/mol
13,CATTGCACGTGTCGTG,-0.04 kcal/mol
14,GTTCGCACGTGGGATA,-0.12 kcal/mol
15,TTAGGCACGTGCTGTA,-0.18 kcal/mol
16,TATGACACGTGTGTAA,-0.01 kcal/mol
17,GTATGCACGTGCGGCG,-0.17 kcal/mol
18,GGGATCACGTGTGGTG,0.23 kcal/mol
19,ATAGCCACGTGGTGTA,-0.23 kcal/mol
20,AGGTGCACGTGGAGGT,-0.02 kcal/mol
21,GTGTGCACGTGTAATC,0.13 kcal/mol
22,GGGGTCACGTGGCATA,-0.01 kcal/mol
23,ATTGTCACGTGGCTCT,-0.05 kcal/mol

row,Sequence,relative binding free energy
1,AGCGGCACGTGGCGGG,-0.24 kcal/mol
2,ATATACACGTGTCGGG,0.04 kcal/mol
3,AGTTTCACGTGTCATG,0.15 kcal/mol
4,ACTGTCACGTGTTGTG,-0.01 kcal/mol
5,GGTTGCACGTGCCGGG,0.11 kcal/mol
6,ATTCTCACGTGTGTGG,0.3 kcal/mol
7,GGATGCACGTGTAAGG,0.05 kcal/mol
8,ACGGTCACGTGTCTGG,0.06 kcal/mol
9,AGTTTCACGTGGTTGC,0.2 kcal/mol
10,TGGAGCACGTGTTTGC,-0.13 kcal/mol
11,CTGGGCACGTGGCCGT,-0.11 kcal/mol
12,GGGGGCACGTGGCTGG,-0.11 kcal/mol
13,AGCGTCACGTGCGAGG,0.05 kcal/mol
14,CTTGGCACGTGGTGAG,-0.17 kcal/mol
15,GGATGCACGTGCATGG,0 kcal/mol
16,ATTTGCACGTGGGGGC,-0.06 kcal/mol
17,AATTGCACGTGCGCTG,0.03 kcal/mol
18,AAATGCACGTGGGTAG,-0.09 kcal/mol
19,TTAAGCACGTGTGGTA,-0.06 kcal/mol
20,ATTGGCACGTGAGCTG,0.1 kcal/mol
21,GGAATCACGTGGGGGT,0.01 kcal/mol
22,TTGAGCACGTGTTAGC,-0.02 kcal/mol
23,TTTTACACGTGGTCCT,0.05 kcal/mol

row,Sequence,relative binding free energy
1,CATATCACGTGCGGTT,0.15 kcal/mol
2,TTCGTCACGTGGATAG,0.13 kcal/mol
3,TGGAACACGTGTTGGC,-0.03 kcal/mol
4,TGACACACGTGAGGGT,0.18 kcal/mol
5,GATTACACGTGGAAGG,0.11 kcal/mol
6,TGCTACACGTGTCGGT,0.14 kcal/mol
7,ACTTTCACGTGGTTTG,0.33 kcal/mol
8,TTTAGCACGTGGACGA,-0.12 kcal/mol
9,ATAGGCACGTGCGGTT,-0.11 kcal/mol
10,ATGGGCACGTGTTAGA,0.03 kcal/mol
11,CGGATCACGTGGGCGG,0.03 kcal/mol
12,TTCATCACGTGTTTTA,0.16 kcal/mol
13,TTTTTCACGTGATGAA,0.25 kcal/mol
14,AAGTGCACGTGGGTCG,-0.17 kcal/mol
15,TACTGCACGTGGGTTA,-0.1 kcal/mol
16,TGGATCACGTGGACTT,0.18 kcal/mol
17,GTAATCACGTGCAGGT,0.19 kcal/mol
18,GCAAACACGTGTGGGG,0 kcal/mol
19,GGCTTCACGTGGGAAG,0.25 kcal/mol
20,GGACGCACGTGGATGT,0 kcal/mol
21,AAGTTCACGTGAGTTC,0.53 kcal/mol
22,CTGAGCACGTGAGGGC,0.26 kcal/mol
23,CTTGACACGTGTTGGT,0.06 kcal/mol

row,Sequence,relative binding free energy
1,ATATGCACGTGGTCTT,-0.07 kcal/mol
2,TTTGACACGTGTGAGA,0.15 kcal/mol
3,TGGCCCACGTGAGGGG,0.09 kcal/mol
4,GGGTACACGTGAGGGG,0.36 kcal/mol
5,ATTGTCACGTGATGGG,0.24 kcal/mol
6,GGGAGCACGTGTAGTT,-0.13 kcal/mol
7,TATGGCACGTGTTGAG,-0.12 kcal/mol
8,TAAAACACGTGGGATT,-0.06 kcal/mol
9,TTTCACACGTGGCTGG,0.02 kcal/mol
10,ATTTCCACGTGGTAGG,0 kcal/mol
11,AGTGGCACGTGAGAAG,0.13 kcal/mol
12,TTAGGCACGTGGTCAT,-0.24 kcal/mol
13,AGGGCCACGTGTTGTG,-0.03 kcal/mol
14,GCTGTCACGTGTGAGA,0.19 kcal/mol
15,CGTTTCACGTGTAATG,0.18 kcal/mol
16,TTAGTCACGTGTAAGA,0.06 kcal/mol
17,AGGGACACGTGGGCCG,-0.12 kcal/mol
18,AGGGTCACGTGAGTGG,0.3 kcal/mol
19,TTCTGCACGTGGGTGT,-0.14 kcal/mol
20,AAGGTCACGTGAGTTC,0.37 kcal/mol
21,TTATGCACGTGTGGGT,0.06 kcal/mol
22,TTGAACACGTGGAGCT,0.12 kcal/mol
23,TCTGCCACGTGAGGGT,0.23 kcal/mol
